In publication PMC12136788:
Some of the results follow.

B1: 114968166_114968286_1623_CDS_ENSG00000197323_ENST00000358465|human|control|control (ssRNA)
RNA: GGGAGUUCUACAGUCCGACGAUCCUGUUGCAACUGCUGAUGUUUCUGUGCAUAUACUUGUUGUUGCAUGUGCUGGAGUCGAAGCUGUGCUAAGUUAAUCUGUCCAGGGGUUUUACUAAUGUGGUUUGUCCCUGGAGGAACUUGCAACAGAGGAUUGAGCAUCA
B2: chr17:45760540:45760541:+_ENSG00000108424_ENST00000290158|hu_hu|FALSE|FALSE (ssRNA)
RNA: GGGAGUUCUACAGUCCGACGAUCUUUCCCUAGAGUAAAAAAAACAAAAAACAAAACCAAAAAAAAAAAACAAAACAAAACCUAAAGAGCGUCUUUCCUCUGUGUGUGUGUUUUUUUUUUUUUUUUUUUUUUUUUUUUUACAUCCAACAGAGGAUUGAGCAUCA
B3: chr18:34472677:34472678:+_ENSMUSG00000005871_ENSMUST00000115781|mus_hu|FALSE|FALSE (ssRNA)
RNA: GGGAGUUCUACAGUCCGACGAUCUGCACUAUGUAUUUUAUGGGCUAGGUCGGCUGGGUAUUGACCAUAACUGCAAAACUUACUUUCAUCAUCUUCAGAAUAGGAUUCAAUCGAGGGUUUCAUUUGACCUCUUUUACCAUAACCCAACAGAGGAUUGAGCAUCA
B4: 171526598_171526718_1044_CDS_ENSG00000117523_ENST00000495585|human|control|control (ssRNA)
RNA: GGGAGUUCUACAGUCCGACGAUCCUGGAACUGAAGCUGAGACUGAGGCUGAGGCUGAAACUGGAGCUAAGGGUGAGGCUGGAACUGGAGCUGAGGUUGAGGCCAGAACUGGAGCUAAAGUUGAGGCUGGAACCGGAGCUGAGGCAACAGAGGAUUGAGCAUCA
B5: chr14:70181642:70181643:+_ENSG00000100647_ENST00000342745|hu_hu|FALSE|FALSE (ssRNA)
RNA: GGGAGUUCUACAGUCCGACGAUCACCCAAACUGAUUGAGUGACAUCCUGCACAGAGUCAAUUAUGAAUGUGUUGUUUUAAACCAUUAUAUGAGUACCAUUCUGCAAAGGAUUCCAUAGUGGUGCGAUAACCUGAAGAAGCCAGCAACAGAGGAUUGAGCAUCA
B6: 20567692_20567812_725_CDS_ENSG00000121741_ENST00000382871|human|control|control (ssRNA)
RNA: GGGAGUUCUACAGUCCGACGAUCGCCAUCAUUCACAGAGCUUACACCUGUUUCUAAAGUUGUAACAUUAGCAAUCUGAAUUUCAGAGUCUGGUUCUGUGGUGAUACCACUAUUACCCAUUCCUGCAUUUACCUUACUUCUUGACAACAGAGGAUUGAGCAUCA
B7: chr3:148522152:148522153:-_ENSMUSG00000028184_ENSMUST00000106128|mus_hu|FALSE|FALSE (ssRNA)
RNA: GGGAGUUCUACAGUCCGACGAUCUGGUGAGGUAUCAUGGUAGUUGGCAUAGUUAAUUAUGGCCUCGCCACUCUUAAUUCUAGUCCUCAAGUCAAAUUUCACAAUAUUCCUCGUUCUUUCUUUGUUAAAGAAGACAGCACCAUCCAACAGAGGAUUGAGCAUCA
B8: chr14:48151594:48151595:+_ENSMUSG00000037536_ENSMUST00000168833|mus_mus|motif|central (ssRNA)
RNA: GGGAGUUCUACAGUCCGACGAUCAUUGAAGUUUUUUUAAAAAAUUUUUAACCAGACAAAAGGAUGCACAACAUUUUAAUCGGUUAUAUGAUAUUGUCUUAUUCUGUGGUGAUUAUGUUUAGUCAGCUGUUCAUAAUAUACAAUCAACAGAGGAUUGAGCAUCA
B9: chr4:115894766:115894767:+_ENSMUSG00000028698_ENSMUST00000030464|mus_hu|mus_mus_mus_hu_True|68_88 (ssRNA)
RNA: GGGAGUUCUACAGUCCGACGAUCUUCCACACGGAAAUGUACUUCGGGUUUCCAACGGGCCAGUACCGUCCAGCCAAAACUACCCGAACAGGGUCCUCCCCCUCUCUCCUACAGAACACAACAAAAUGCCCCCGAACUUUCAAGCAACAGAGGAUUGAGCAUCA
B10: chr19:60835742:60835743:+_ENSMUSG00000072437_ENSMUST00000088237|mus_hu|FALSE|FALSE (ssRNA)
RNA: GGGAGUUCUACAGUCCGACGAUCUCCAAAAAGGACUUUGUAGGAAAAUUAAAAUACAAAGAAAAAUAAAAGCCACUAGAAAUUUUAAGUCUGUACAGAAAAGAACAGGUUAAGACAAUCUGUACCUCUACAGUUGGAGAAGCCCAACAGAGGAUUGAGCAUCA
B11: 90283538_90296387_2345_CDS_ENSG00000196730_ENST00000408954|human|control|control (ssRNA)
RNA: GGGAGUUCUACAGUCCGACGAUCGAGCUUAAUUCUUGGCUGCAGGUUCUGUGUGGGUCGGAGCUGCUGGAUGAAGAGUCCUCGGUGCGUAUCCUUUCGAAGUCUUGCAAGGAGACCUGCUACGUGCUCGUGCUGUUCCGAUCUCAACAGAGGAUUGAGCAUCA
B12: chr15:31439531:31439532:-_ENSMUSG00000039100_ENSMUST00000090227|mus_hu|motif|central (ssRNA)
RNA: GGGAGUUCUACAGUCCGACGAUCAAAUCUGUGCUUGCAUAAUUCACAGUAUUCUUUUCGACUGUGUUUCAGCCAUUGAACGGAGCAUUCUUGAUGGAUAAACUUAAUACUGCCAGUACAUACACAAGGAUGAUAAAGCGGUUUCAACAGAGGAUUGAGCAUCA
B13: chr15:44267162:44267163:+_ENSMUSG00000022338_ENSMUST00000060652|mus_hu|FALSE|FALSE (ssRNA)
RNA: GGGAGUUCUACAGUCCGACGAUCCUGAGCAAGGAAUGUUCUUAUUCUUUGUAGGAGCUCCUUCUUUACACUGUCAGGUACCAGGGCUCUGCCUUUUGGAGUGAUUUCAGCCACCAAGUCAUCAACAGUAACGUGUUCUAGUCCCAACAGAGGAUUGAGCAUCA
B14: chr2:49628351:49628352:+_ENSMUSG00000026764_ENSMUST00000028102|mus_mus|FALSE|FALSE (ssRNA)
RNA: GGGAGUUCUACAGUCCGACGAUCCAAAGGACCCCUCCAUCAGACUCCAAUAGCAGCCAACAGUGGCAACAACAUGAAACAAAGUGAACACAGGUAAACACAAAAUCAUCUUUGUAAAAUAAAUACUUCAAUAGAAGUUGUCUUCAACAGAGGAUUGAGCAUCA
B15: chr1:39463905:39463906:+_ENSG00000174574_ENST00000432648|hu_hu|FALSE|FALSE (ssRNA)
RNA: GGGAGUUCUACAGUCCGACGAUCUGAGGAGUGAGGUUGACUUUCCGAAGCACAAGCUUCACUCUGAUUAAGAACAACUUCUAAAUGUCUCCACCUCUGAUAACGACUAUAUUCUUGUUUUAUGUUCUGAAAAAUUUGCUCCGGCAACAGAGGAUUGAGCAUCA
B16: chr8:26941818:26941819:-_ENSMUSG00000031575_ENSMUST00000166078|mus_mus|motif|central (ssRNA)
RNA: GGGAGUUCUACAGUCCGACGAUCACUAGCAGACACAGCACUGCUUUGUUUCUGGUUGUCAUAAGCAGGACCAAUAUUACGGAGAUCCUGAUCCAAAAGUCCAAACUUGGGGUAAUCUUCUUCUGGGUCUUUGCUUCCUGGGUCCAACAGAGGAUUGAGCAUCA
B17: chr2:26507767:26507768:+_ENSG00000138029_ENST00000317799|hu_mus|motif|central (ssRNA)
RNA: GGGAGUUCUACAGUCCGACGAUCCUUGGUUUUCCUACCCAUGUAGUUUUGUGCAAACCAAUCAGAAUCCAUGGCUUUAAAGUUAGCGGAAAUCUGGCCUGAGAAGGCUUCAUGAAAUUCAAAAGCAUCGAUAUCAUUCAUGGUCAACAGAGGAUUGAGCAUCA
B18: 53190818_53190938_964_3pUTR_ENSG00000177200_ENST00000398510|human|control|control (ssRNA)
RNA: GGGAGUUCUACAGUCCGACGAUCGUGAAAAGGAAUUACUUCCAGUAAAAUCAGAUAAAGUCUGAUUUGUAUGAUUAGAUGCAAGAACUGCAGAGGACUGAAGUAGACUGUUUGGUGAUAUAUGAUUACUGGAAAAGGAAUAAUCAACAGAGGAUUGAGCAUCA
B19: chr8:117878989:117878990:-_ENSG00000164754_ENST00000297338|hu_hu|hu_hu_hu_mus_True|28_68 (ssRNA)
RNA: GGGAGUUCUACAGUCCGACGAUCCCAGAGGCCCUCGUUUACUGAGGACAAAAUGUGCGUAGAACAUUGUUCUGGCUUGCUAUGAAAUAAGAAGAAACCUGGAUCUCCCGCUGGGAGCGGGAGGGGUGGGUGGCCCGGGGAGGGCAACAGAGGAUUGAGCAUCA
B20: chr1:25669491:25669492:+_ENSG00000183726_ENST00000374358|perfect_dup|motif|central (ssRNA)
RNA: GGGAGUUCUACAGUCCGACGAUCACAGGUAUGGUAUGAAUGGUUGAAUUGAUCCAUCCUGGGGUACAUGACAGCCGCGUCGGUGAUGAUCCACCAUCCCGUGAAAAAUAGAACGCCAGCAGCGAUGGAGGCGAUCGUGUUCCGCAACAGAGGAUUGAGCAUCA
B21: chr4:41600979:41600980:+_ENSG00000064042_ENST00000508501|hu_hu|FALSE|FALSE (ssRNA)
RNA: GGGAGUUCUACAGUCCGACGAUCUACUCUGUUGGAUGUAUCCUGGAGGUCACUCGGGUCAAAAAGUUGAGAUUCUUUAAGGCCGAGCUCUUUACAACCUCUCAAGAAUAAGAUAAUAUUGUCCAGUCCUGCAAUGGGGGUAGGCAACAGAGGAUUGAGCAUCA
B22: chr7:7679991:7679992:-_ENSG00000106399_ENST00000396682|hu_hu|hu_hu_hu_mus_False|1_28 (ssRNA)
RNA: GGGAGUUCUACAGUCCGACGAUCUGGGAUGAAUCUUUUCCAGCUUCCCCACGAAGCACACGGGCCGGUCGAUAUACUGUGGUAACAUGCUGGCGUUGACGCGCGCUCUGGGCAAGUGCAUUAUGUCCUCCAUGAUUAUGGUCCCAACAGAGGAUUGAGCAUCA

Target: T1, UNK ZnF1-3 (human, UniProt Q9C0B0 31-174)
T1 sequence: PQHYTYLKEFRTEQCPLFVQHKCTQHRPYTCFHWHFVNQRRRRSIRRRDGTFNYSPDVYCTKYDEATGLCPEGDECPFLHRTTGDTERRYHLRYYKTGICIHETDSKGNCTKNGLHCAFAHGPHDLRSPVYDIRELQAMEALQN
Experiment: nsRBNS (natural sequence RNA bind-n-seq); RBNS binding buffer (assumed for nsRBNS): 25 mM Tris pH 7.5, 150 mM KCl, 3 mM MgCl2, 0.01% Triton X-100, 500 ug/ml BSA, 20 U/ml SUPERase-In, 4 C; UNK is unkempt and MSI1 is Musashi-1; names of the RNAs are library labels; protein concentration not given here; high values mean tight binding

Binder | binding signal [enrichment R]
B1 | 0.631
B2 | 2.03
B3 | 0.798
B4 | 2.18
B5 | 1.03
B6 | 0.801
B7 | 0.697
B8 | 3.05
B9 | 1.17
B10 | 1.14
B11 | 0.605
B12 | 1.01
B13 | 1.18
B14 | 1.68
B15 | 1.25
B16 | 0.774
B17 | 0.91
B18 | 1.49
B19 | 1.35
B20 | 1.81
B21 | 0.835
B22 | 0.658
